# Laboratory results as given in PubChem BioAssay AID1347120 (National Center for Advancing Translational Sciences (NCATS), 2019).
# In all, about 390,000 compounds went through this assay and about 930 (0.24%) were called active. Inconclusive means that the source gave no clear call. Such entries were picked first, then a sample of the others. Calls come from the whole dose curve; as a rule, active = well fitted activation curve with a large enough effect; inconclusive = small, poorly fitted or top-dose-only effect; inactive = no such curve, though single readings can be large or run the other way. A potency beside an inconclusive call is a rough fit, not a confirmed value.
# Experiment: qHTS for Suppressors of FUS Proteinopathy: Primary screen using FUS-linked yeast assay; note: nearly all actives have a fitted effect of over 55% in size;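 for growth rescue (activation): plate controls were DMSO vehicle for no effect and reference control for full effect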
# Details: S. cerevisiae FUS-expressing, OD600, 24 h; Potency: growth rescue; growth rescue (activation): at 76.6 µM (top of the series)
# Procedure, shortened: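 FUS-expressing yeast, raffinose-pregrown, induced in 2% galactose minimal medium at OD 0.005; compounds in a dilution series, 24hr at 30C. Growth restoration read as absorbance at 600 nm. CP55940 positive control, DMSO negative.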
# Potency is the fitted concentration of half-maximal effect; tags give direction and shape of the fitted curve.
Compound,Potency,growth rescue (activation)
O=c1c2ccccc2sn1-c1cc(S(=O)(=O)N2CCOCC2)ccc1N1CCOCC1,"inconclusive: 50.1 µM [activator, single point]",–
CC(NC(=O)c1ccc2c(c1)CCN2S(=O)(=O)c1ccccc1)c1ccccc1 (stereo not drawn),"inconclusive: 25.1 µM [activator, partial curve]",–
CC(=O)Nc1ccc(-n2cc(-c3ccccc3)[nH]c2=S)cc1,inactive,–
O=C1/C(=C/C=C/c2ccccc2)Oc2c1ccc(O)c2CN1CCN(CCO)CC1,"inconclusive: 20 µM [activator, partial curve, poor fit]",–
CCOC(=O)c1c(N)sc2c1CCC1C(=O)N(C3CCCCC3)C(=O)C21 (stereo not drawn),active: 28.2 µM,–
Cc1ccc(CNC(=O)Cc2c(C)c3c(cc(C)c4c(C)coc43)oc2=O)cc1,inactive,–
COc1ccc(-n2nc(C(=O)N3CCN(c4cccc(C)c4C)CC3)c3c4ccccc4n(C)c3c2=O)cc1Cl,inactive,–
Cc1coc(C)c1C(=O)CC1(O)C(=O)N(Cc2ccccc2)c2ccccc21 (stereo not drawn),"inconclusive: 56.2 µM [activator, partial curve, poor fit]",–
O=C(Nc1ccc(Cl)cn1)c1cc2c(s1)-c1ccccc1OC2,inactive,–
COC(=O)c1ccc(CSc2nnc(NC(C)C)s2)cc1,–,inconclusive: 51.9% [activator]
O=C(Nc1ccc2c(c1)OCO2)c1cc(C2CCCCN2C(=O)c2ccc3c(c2)CCO3)on1 (stereo not drawn),"inconclusive: 31.6 µM [activator, single point]",–
Cc1cc(-c2ccc(C)c(S(=O)(=O)NCc3cccc(Br)c3)c2)on1,"inconclusive: 50.1 µM [activator, single point]",–
C/C(=N\Nc1ccc(S(=O)(=O)N2CCCCC2)cn1)c1cccc(Br)c1,"inconclusive: 31.6 µM [activator, single point]",–
CC(=O)Cc1nsc(NC(=O)c2ccccc2)n1,"inconclusive: 10 µM [activator, partial curve, poor fit]",–
Cc1ccc([C@H]2C[C@@H](n3cc(-c4ccc(F)cc4)nn3)[C@H](O)CN2C(=O)C2CCCCC2)cc1,"inconclusive: 50.1 µM [activator, single point]",–
CCc1ccccc1-n1c(C)nc2cc(C(=O)NCCc3ccc(Cl)cc3)ccc21,"inconclusive: 15.8 µM [activator, single point]",–
CC(=O)C1=C(O)C(=O)N(CCc2c[nH]c3ccccc23)C1c1ccc(O)cc1 (stereo not drawn),"inconclusive: 50.1 µM [activator, single point]",–
Nc1nc(-c2cc(Cl)cc(Cl)c2OC(F)F)cs1,inactive,–
CC(C)c1ccc(Nc2ncnc3onc(-c4ccc(F)cc4)c23)cc1,"inconclusive: 25.1 µM [activator, partial curve, poor fit]",–

Compound,Potency,growth rescue (activation)
O=C(NC1CCCCC1)C(c1ccc(C(F)(F)F)cc1)n1c(=O)c(-c2ccco2)nc2ccccc21 (stereo not drawn),"inconclusive: 6.31 µM [activator, partial curve, poor fit]",–
Cc1ccc(S(=O)(=O)Nc2ccccc2C(N)=O)cc1,inactive,–
COc1ccc(NC(=O)c2cc3c(=O)n(C)c4ccccc4c3n2C)cc1OC,"inconclusive: 25.1 µM [activator, partial curve, poor fit]",–
COc1ccccc1CNC(=O)CCC1N=C2c3ccccc3N=C(SCC(=O)Nc3ccc(N(C)C)cc3)N2C1=O (stereo not drawn),"inconclusive: 25.1 µM [activator, partial curve, poor fit]",–
COc1ccc(N(CC(=O)NCc2ccccc2)C(=O)Cn2nnc(-c3ccccc3F)n2)cc1OC,inactive,–
C=CCn1c(SCC(=O)Nc2ccccc2-c2ccccc2)nnc1-c1ccccc1,"inconclusive: 20 µM [activator, partial curve, poor fit]",–
O=C(O)c1ccccc1/C=N/Nc1ccc(S(=O)(=O)Nc2ccc(Cl)cc2)cc1[N+](=O)[O-],"inconclusive: 44.7 µM [activator, single point]",–
COc1ccc(S[C@]2(C(=O)N(C)C)CC(=O)N(C(=O)/C=C/c3ccccc3)[C@@H]2c2ccc(OC)cc2)cc1,"inconclusive: 14.1 µM [activator, partial curve, poor fit]",–
CCCCCC(=O)N1C[C@H](O)[C@@H](n2cc(-c3ccc(F)cc3)nn2)C[C@@H]1c1ccc(C)cc1,"inconclusive: 28.2 µM [activator, single point]",–
CCOC(=O)C1=C(C)NC(C)=C(C(=O)OCC)C1C(=O)OCC(=O)NC1CCCCC1,"inconclusive: 35.5 µM [activator, single point]",–
NS(=O)(=O)c1ccc(CCNC2CC(=O)N(CCc3ccccc3)C2=O)cc1 (stereo not drawn),"inconclusive: 7.94 µM [activator, partial curve, poor fit]",–
CCOC(=O)[C@]12CCCCC/C=C\1N(Cc1ccc(OC)cc1)C(=O)[C@H]2CC(=O)NCCC(C)C,"inconclusive: 12.6 µM [activator, partial curve]",–
CCCc1cc(C(=O)N2CCCC(Nc3ccc(C)c(C)c3)C2)n(C)n1 (stereo not drawn),"inconclusive: 20 µM [activator, partial curve, poor fit]",–
CC(C)OP(=O)(c1ccc(N(C)C)cc1)C(Nc1ccccc1)c1ccccc1 (stereo not drawn),"inconclusive: 25.1 µM [activator, single point]",–
CC(=O)Cc1nsc(NC(=O)c2cc(-c3cccc(C(F)(F)F)c3)oc2C)n1,–,inconclusive: 49.9% [activator]
Cc1ccc2nsnc2c1S(=O)(=O)NCCc1c(C)[nH]c2ccc(F)cc12,"inconclusive: 31.6 µM [activator, partial curve, poor fit]",–
CC(C)(C)c1ccc(/C=C2\Oc3cc(OC(=O)N4CCOCC4)ccc3C2=O)cc1,"inconclusive: 28.2 µM [activator, single point]",–
COc1ccc(Nc2nc(C(=O)N(CCO)Cc3ccccc3)cs2)cc1,"inconclusive: 31.6 µM [activator, single point]",–
CC(=O)Nc1ccc(-c2ccnc3c2CC(C(=O)Nc2cccc(N(C)C)c2)O3)cc1 (stereo not drawn),"inconclusive: 31.6 µM [activator, single point]",–
